Measured values from PMC6919601, “Identification of Plasmodium dipeptidyl aminopeptidase allosteric inhibitors by high throughput screening” (PLoS ONE, 2019).
The campaign covered roughly 110,000 compounds. About 230 (0.21%) showed an effect of 50% or more. This is one part of the list.

biological target: DPAP1 (Plasmodium falciparum, UniProt Q8IIJ9); test: primary screen, percent inhibition; read by cleavage of a fluorogenic dipeptide substrate; higher = more effect of the substance; set-up: species or system P. falciparum D10 trophozoite lysates; single well
Sequence (Q8IIJ9 whole entry, looked up): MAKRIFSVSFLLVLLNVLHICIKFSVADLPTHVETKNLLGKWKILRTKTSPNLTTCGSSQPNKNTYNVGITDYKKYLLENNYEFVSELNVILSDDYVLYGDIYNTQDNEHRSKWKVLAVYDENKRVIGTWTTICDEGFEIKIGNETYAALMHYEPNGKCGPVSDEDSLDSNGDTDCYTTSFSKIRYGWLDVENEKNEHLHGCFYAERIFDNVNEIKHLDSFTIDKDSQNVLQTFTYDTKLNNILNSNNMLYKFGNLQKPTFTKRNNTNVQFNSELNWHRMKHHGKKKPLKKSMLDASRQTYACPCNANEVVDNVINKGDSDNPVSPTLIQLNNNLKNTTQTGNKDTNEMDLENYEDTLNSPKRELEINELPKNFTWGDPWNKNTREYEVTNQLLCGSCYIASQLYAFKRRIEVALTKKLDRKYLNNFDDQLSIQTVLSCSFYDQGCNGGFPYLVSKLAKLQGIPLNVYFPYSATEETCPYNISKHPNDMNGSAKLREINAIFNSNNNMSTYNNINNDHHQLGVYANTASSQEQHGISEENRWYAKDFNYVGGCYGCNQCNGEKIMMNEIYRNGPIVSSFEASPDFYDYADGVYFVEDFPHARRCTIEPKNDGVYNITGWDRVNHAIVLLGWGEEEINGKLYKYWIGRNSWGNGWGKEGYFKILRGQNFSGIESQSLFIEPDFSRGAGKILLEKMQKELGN
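Further: 30 min substrate incubation versus DMSO and 10 µM JCP410 controls.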

Going from `CCOc1ccc2nc(N3CCC(C(=O)NCCCN4CCOCC4)CC3)sc2c1` to `CCOC(=O)c1cnc2ccc(OC)cc2c1NCCN1CCOCC1`, the “% Inhibition @ 10 uM” value falls from -7.1% to -8.87%.

First: CCN(CC)S(=O)(=O)c1ccc(NC(=O)c2ccc(-c3ccccc3)cc2)cc1
Second: Cc1ccc(C(=O)Nc2ccc(-c3nc4cc(Cl)ccc4o3)cc2)cc1[N+](=O)[O-]
The “% Inhibition @ 10 uM” value of the first is lower: -4.82% for the first, -3.79% for the second.

First: Cc1c(C(=O)NCCC(C)C)sc2nc3n(c(=O)c12)CCCCC3
Second: COCCNC(=O)C1CCCN(c2cnnc3c(Cl)cccc23)C1 (stereo not drawn)
The “% Inhibition @ 10 uM” value of the first is higher: 1.51% for the first, 1.08% for the second.

Going from `CN1CCN(C(=O)CCCOc2ccc(Cl)cc2Cl)CC1` to `Cc1cccc(OCCCCN2CCOCC2)c1`, the “% Inhibition @ 10 uM” value rises from -3.56% to -0.546%.

Compared with `Cn1nc(C(=O)NCCc2ccccc2)c2c1-c1ccccc1SC2`, `O=C(Cc1ccccc1)Nc1nonc1-c1ccccc1` is lower in “% Inhibition @ 10 uM” value: -0.495% for the first, -1.07% for the second.

Compared with `CC1CCN(C(=O)COc2ccc(S(=O)(=O)NC(C)(C)C)cc2)CC1`, `CCCOc1ccc(S(=O)(=O)N2CCN(c3ccccc3F)CC2)cc1` is lower in “% Inhibition @ 10 uM” value: 3.29% for the first, -4.02% for the second.

Compared with `COc1cc(OC)c(OC)cc1CN1CCN(Cc2ccccc2C)CC1`, `COc1ccc(CN2CCN(Cc3ccc(C)cc3)CC2)cc1OC` is higher in “% Inhibition @ 10 uM” value: 0.661% for the first, 18.1% for the second.

First: O=C(c1ccc2c(Cl)c3c(nc2c1)CCC3)N1CCN(C2CCCCC2)CC1
Second: FC(F)(F)c1nc(N2CCCCC2)nc2c1CCCCC2
The “% Inhibition @ 10 uM” value of the first is lower: -5.76% for the first, -1.73% for the second.

Going from `O=C(COc1ccccc1Cl)NC1CCCCCC1` to `OC1CC(c2ccccc2)NC2(CCCCC2)C1` (stereo not drawn), the “% Inhibition @ 10 uM” value rises from 2.33% to 3.79%.

First: CCCCSc1nnc(NC(=O)c2nc(SCC)ncc2Cl)s1
Second: O=C(Nc1cccc(Cl)c1)c1cccc(Br)c1
The “% Inhibition @ 10 uM” value of the first is higher: 2.19% for the first, 1.38% for the second.

Compared with `COc1ccc(C(=O)Nc2ccc(C)c(C)c2)cc1`, `COc1ccc2oc(=O)c(-c3csnn3)cc2c1` is higher in “% Inhibition @ 10 uM” value: -3.04% for the first, 10% for the second.

Going from `O=C(NCCN1CCN(C(=O)c2ccc(F)cc2)CC1)c1ccc(F)cc1` to `Cc1cc(C)c2nc(NCc3ccc(F)cc3)sc2c1`, the “% Inhibition @ 10 uM” value rises from -4.02% to 2.31%.

Compared with `COc1cc(CN2CC(C)OC(C)C2)cc(OC)c1` (stereo not drawn), `COC(=O)N1CC(c2ccccc2)CC1=O` (stereo not drawn) is higher in “% Inhibition @ 10 uM” value: -6.12% for the first, -2.36% for the second.

First: N#C/C(=C/C=C/c1ccccc1)c1nc(-c2ccc(Cl)c(Cl)c2)cs1
Second: CC(NC(=O)CNC(=S)N(Cc1ccccc1)Cc1cccnc1)c1ccccc1 (stereo not drawn)
The “% Inhibition @ 10 uM” value of the first is lower: -2.6% for the first, 1.27% for the second.

Compared with `CCOC(=O)/C(C#N)=C\c1c(C)cc(C)cc1C`, `O=C1CCN(c2ccccc2Br)N1` is lower in “% Inhibition @ 10 uM” value: 2.62% for the first, -2.74% for the second.
